Assay results reported in the supplement of paper PMC10369915.
The other results are listed elsewhere or left out. No stated cut-off is given here; in the data, active = 3.2 or more and inactive = the rest. Only a few entries rise above the background.

Legend:
Test in all cases: enrichment score (SH2-bound / input frequency) (ratio); bacterial display of known human phosphotyrosine sites (pTyr-Var adds point mutants) read by sequencing; higher = stronger binding; tyrosines were phosphorylated by kinases first
Settings in all cases: peptide library: pTyr-Var
[1] = biological target: SHP2 C-SH2 domain E139D
[2] = biological target: SHP2 C-SH2 domain wild-type
[3] = biological target: SHP2 N-SH2 domain L43F
[4] = biological target: SHP2 N-SH2 domain T42A
[5] = biological target: SHP2 N-SH2 domain T52S
[6] = biological target: SHP2 N-SH2 domain wild-type

Measured: enrichment score
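Further: displayed peptides selected on beads carrying the immobilized SH2 domain, with library peptides lacking any tyrosine serving as negative controls.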

VAVTKYCKEEF [ATP7B_Y1078_L1083F]
inactive: [1] 1 | [2] 0.891 | [3] 1.03 | [4] 0.707 | [5] 0.97 | [6] 1.09

DRIVNYSRASV [ATP7A_Y1459_I1464V]
inactive: [1] 0.804 | [2] 1.09 | [3] 0.808 | [4] 0.952 | [5] 0.94 | [6] 0.917

EPDSLYGCGRG [ATM_Y2019_G2023R]
inactive: [1] 0.662 | [2] 0.812 | [3] 0.634 | [4] 0.671 | [5] 0.718 | [6] 0.648

YRAVKYLQMVG [AVPR2_Y117_C112Y]
inactive: [1] 0.83 | [2] 1.02 | [3] 1.09 | [4] 3.01 | [5] 1.18 | [6] 0.622

KVALVYGQMNQ [ATP5F1B_Y269_E274Q]
inactive: [1] 0.905 | [2] 0.943 | [3] 1.1 | [4] 0.809 | [5] 0.956 | [6] 0.903

NCFKYYMSDDI [ATRX_Y204]
inactive: [1] 1.1 | [2] 1.05 | [3] 1.08 | [4] 0.757 | [5] 0.867 | [6] 1.01

KSMFVYCTPNK [ATP2A2_Y497_S495F]
inactive: [1] 0.86 | [2] 0.705 | [3] 0.623 | [4] 0.755 | [5] 0.778 | [6] 0.836

KNCFKYFMSDD [ATRX_Y203_YF]
inactive: [1] 1.12 | [2] 0.979 | [3] 1 | [4] 0.934 | [5] 0.668 | [6] 0.961

PADSGYPAYLG [ATP6V1A_Y374]
inactive: [1] 0.97 | [2] 1.1 | [3] 1 | [4] 0.697 | [5] 0.976 | [6] 0.918

WRVISYHVVVW [ATP13A2_Y50_G49S]
inactive: [1] 2.63 | [2] 2.62 | [3] 2.01 | [4] 2.01 | [5] 2.21 | [6] 1.88

VNCHQYDGLVE [ATP2A2_Y407]
inactive: [1] 0.967 | [2] 0.704 | [3] 0.837 | [4] 0.699 | [5] 0.975 | [6] 0.813

GSRGKCSSGFR [ATM_Y332_Y332C]
inactive: [1] 0.698 | [2] 0.703 | [3] 0.739 | [4] 0.643 | [5] 0.659 | [6] 0.592

VAVTKYCKEEL [ATP7B_Y1078]
inactive: [1] 0.941 | [2] 1.05 | [3] 0.648 | [4] 0.945 | [5] 0.808 | [6] 1.17

VVVTKYCKEEL [ATP7B_Y1078_A1074V]
inactive: [1] 1.13 | [2] 1.2 | [3] 1.14 | [4] 0.852 | [5] 0.987 | [6] 1.26

LAVVDYMRRQK [ATM_Y1915]
inactive: [1] 0.16 | [2] 0.351 | [3] 0.273 | [4] 0.284 | [5] 0.239 | [6] 0.221

INQGPYENRSV [ATP6V1B1_Y462]
inactive: [1] 0.61 | [2] 0.57 | [3] 0.647 | [4] 0.577 | [5] 0.585 | [6] 0.585

KSMSVYCTPNK [ATP2A2_Y497]
inactive: [1] 0.456 | [2] 0.66 | [3] 0.636 | [4] 0.648 | [5] 0.414 | [6] 0.708

WRVIGYHVVVW [ATP13A2_Y50]
inactive: [1] 1.9 | [2] 1.97 | [3] 1.62 | [4] 1.54 | [5] 1.71 | [6] 2.04

CRAVKYLQMVG [AVPR2_Y117]
inactive: [1] 0.653 | [2] 0.687 | [3] 0.571 | [4] 1.41 | [5] 0.687 | [6] 0.681

NIEPIYLNMLL [ATR_Y317_V316I]
inactive: [1] 0.623 | [2] 0.914 | [3] 0.627 | [4] 0.716 | [5] 0.634 | [6] 0.831

LFEDRYLLGPS [ASS1_Y87_T91P_YF]
inactive: [1] 0.859 | [2] 1.04 | [3] 0.796 | [4] 0.736 | [5] 0.91 | [6] 0.712

NVADHYRVYKP [ATP6V0D2_Y271_G272R]
inactive: [1] 0.52 | [2] 0.821 | [3] 0.716 | [4] 0.63 | [5] 0.523 | [6] 0.74

IRKAEYPFSSE [ATP2C1_Y452]
inactive: [1] 0.889 | [2] 0.732 | [3] 0.858 | [4] 0.727 | [5] 0.766 | [6] 0.941

PLKALYLQQRP [ATM_Y2969]
inactive: [1] 1.42 | [2] 1.25 | [3] 0.811 | [4] 1.21 | [5] 1.12 | [6] 1.3

NCFKFYMSDDI [ATRX_Y204_YF]
inactive: [1] 0.954 | [2] 1.02 | [3] 1.09 | [4] 0.727 | [5] 0.978 | [6] 1.26

IRKTEYPFSSE [ATP2C1_Y452_A450T]
inactive: [1] 1.01 | [2] 1.08 | [3] 0.96 | [4] 0.832 | [5] 0.945 | [6] 0.768

LAVGDYMRRQK [ATM_Y1915_V1913G]
inactive: [1] 0.348 | [2] 0.27 | [3] 0.21 | [4] 0.277 | [5] 0.277 | [6] 0.401

GSRGKYFSGFR [ATM_Y332_S333F]
inactive: [1] 0.637 | [2] 0.609 | [3] 0.57 | [4] 0.575 | [5] 0.605 | [6] 0.483

CKLFQYFLDHL [ATRX_Y1849_YF]
inactive: [1] 2.95 | [2] 2.9 | [3] 2.68 | [4] 2.26 | [5] 2.77 | [6] 2.63

LYEDRYLLGPS [ASS1_Y87_T91P]
inactive: [1] 0.94 | [2] 0.879 | [3] 0.777 | [4] 0.718 | [5] 1.23 | [6] 0.833

CKLYQYYLDHL [ATRX_Y1849]
inactive: [1] 1.06 | [2] 1.26 | [3] 0.939 | [4] 0.836 | [5] 0.992 | [6] 1.57

PADSGYPAFLG [ATP6V1A_Y374_YF]
inactive: [1] 0.496 | [2] 0.795 | [3] 0.92 | [4] 0.616 | [5] 0.744 | [6] 0.725

GSRGKYSSGFC [ATM_Y332_R337C]
inactive: [1] 1.21 | [2] 1.02 | [3] 0.96 | [4] 1.01 | [5] 1.16 | [6] 0.895

VNRSGYTLIRK [ATP6V0A2_Y688]
inactive: [1] 0.439 | [2] 0.345 | [3] 0.374 | [4] 0.291 | [5] 0.537 | [6] 0.308

NSFKYYMSDDI [ATRX_Y204_C200S]
inactive: [1] 0.812 | [2] 0.725 | [3] 0.766 | [4] 0.694 | [5] 0.681 | [6] 1.06

NVADHYGVYKP [ATP6V0D2_Y271]
inactive: [1] 0.589 | [2] 0.714 | [3] 0.652 | [4] 0.629 | [5] 0.631 | [6] 0.752

VNCHQYDGLVG [ATP2A2_Y407_E412G]
inactive: [1] 0.956 | [2] 0.982 | [3] 1.06 | [4] 0.882 | [5] 1.05 | [6] 1.14
